From PubChem BioAssay AID624170 (National Center for Advancing Translational Sciences (NCATS), 2012)
Screen size: about 410,000 compounds; about 850 (0.21%) were called active. Inconclusive means that the source gave no clear call. Such entries were picked first, then a sample of the others. Calls come from the whole dose curve; as a rule, active = well fitted inhibition curve with a large enough effect; inconclusive = small, poorly fitted or top-dose-only effect, or another doubt; inactive = no such curve, though single readings can be large or run the other way. No potency is given beside an inconclusive call; the fits are too rough.

Target: Glutaminase kidney isoform, mitochondrial (Homo sapiens) (UniProt O94925)
UniProt O94925, sequence (O94925 whole entry, looked up, canonical isoform): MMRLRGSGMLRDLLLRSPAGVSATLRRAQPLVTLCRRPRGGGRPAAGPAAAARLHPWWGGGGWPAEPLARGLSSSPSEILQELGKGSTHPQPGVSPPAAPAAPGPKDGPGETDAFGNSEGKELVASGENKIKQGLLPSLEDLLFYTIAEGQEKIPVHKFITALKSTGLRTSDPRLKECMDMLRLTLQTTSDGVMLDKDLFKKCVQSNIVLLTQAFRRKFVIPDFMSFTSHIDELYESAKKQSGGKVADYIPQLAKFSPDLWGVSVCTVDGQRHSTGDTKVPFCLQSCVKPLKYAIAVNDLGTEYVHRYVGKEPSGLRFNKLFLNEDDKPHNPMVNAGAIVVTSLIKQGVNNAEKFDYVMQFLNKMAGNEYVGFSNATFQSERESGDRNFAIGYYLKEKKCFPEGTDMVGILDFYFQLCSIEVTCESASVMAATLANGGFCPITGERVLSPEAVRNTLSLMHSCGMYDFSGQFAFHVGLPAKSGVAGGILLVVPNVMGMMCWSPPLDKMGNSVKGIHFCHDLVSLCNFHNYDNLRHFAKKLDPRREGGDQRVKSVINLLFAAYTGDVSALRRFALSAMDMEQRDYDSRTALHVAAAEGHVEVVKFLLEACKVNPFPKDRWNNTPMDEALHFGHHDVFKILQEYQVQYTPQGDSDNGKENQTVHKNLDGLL
Assay: qHTS for Inhibitors of Glutaminase (GLS)
Conditions: GLS enzymatic activity, qHTS titration; series mostly up to 45.5 µM; activity change, negative = inhibition: at the top concentration
Summary of the method: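 Human kidney-isoform GLS in 45 mM KH2PO4 pH 8.2, 0.02% Tween-20, with compound, started with 1mM L-Glutamine (added stock). Glutamate oxidase/HRP/Amplex red coupled fluorescence read at start and after 30 min at RT.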
% is set by controls: 0 for no effect and ±100 for the full control effect; potency is the fitted concentration of half-maximal effect; tags give direction and shape of the fitted curve.

Structure (SMILES) | Potency | activity change, negative = inhibition
O=C(CSc1nc(O)c(C2CCCCC2)c(=O)[nH]1)Nc1ccccc1Cl | inconclusive [inhibitor, single point] | –
CN(C)c1ccc(N=Nc2ccc(S(=O)(=O)O)cc2)c2ccccc12 | – | inactive: 20.4%
CCOc1cc(/C=N/Nc2nc3ccccc3[nH]2)cc(Br)c1OCC(=O)N(C)C | inconclusive [inhibitor, partial curve] | –
CC(=O)Nc1ccc(S(=O)(=O)NNC(=O)c2ccc(S(=O)(=O)N3CCCCC3)cc2)cc1 | inconclusive [inhibitor, partial curve] | –
CCOc1cc(/C=C2/NC(=O)NC2=O)cc([N+](=O)[O-])c1O | inconclusive [inhibitor, single point] | –
CC1OC(CC(=O)O)CC2=C1C(=O)c1c(O)cccc1C2=O (stereo not given) | inconclusive [inhibitor, single point] | –
NC(CO)C(=O)NNCc1ccc(O)c(O)c1O (stereo not given) | inconclusive [inhibitor, single point] | –
Cc1ccccc1NC(=O)Cc1nc(COC(=O)CCNS(=O)(=O)c2ccccc2)cs1 | inconclusive [inhibitor, single point] | –
CC(C)(C=O)C1=CC(=O)c2ccccc2C1=O | inconclusive [inhibitor, single point] | –
Cc1ccc(S(=O)(=O)Nc2c(C(=O)O)[nH]c3ccccc23)c(C)c1 | inconclusive [inhibitor, single point] | –
CCC(=O)Nc1nc(C)c(-c2csc(Nc3ccc(C(=O)O)cc3)n2)s1 | inconclusive [inhibitor, partial curve] | –
Cc1cc(-c2csc(NC(=O)c3ccc(C#N)cc3)n2)c(C)n1Cc1ccccc1 | inconclusive [inhibitor, single point] | –
CCN=c1scc(C)n1/N=C/c1ccsc1 | inconclusive [inhibitor, single point] | –
O=C(NNC1=NCCCCC1)Nc1ccc(Cl)cc1 | inconclusive [inhibitor, partial curve, poor fit] | –
Cc1nc(NC(=O)CCc2ccccc2)sc1C | – | inactive: 2.04%
COc1ccc(-c2nc3ccc(NS(=O)(=O)c4ccc(C)cc4)cc3o2)cc1 | – | inactive: 7.48%
O=CN/C=C/c1cc(O)ccc1O | inconclusive [inhibitor, single point] | –
Cc1occc1C(=O)NNC(=O)Nc1ccc(Cl)c(Cl)c1 | inconclusive [inhibitor, partial curve, poor fit] | –
O=C(CN1C(=O)COc2ccc(Cl)cc21)Nc1ccc(F)cc1 | – | inactive: 16.3%
CC(NS(=O)(=O)c1ccccc1)c1n[nH]c(=S)n1-c1ccccc1 (stereo not given) | inconclusive [inhibitor, single point] | –
c1cncc(CSc2nnc3ccc(-c4ccncc4)nn23)c1 | – | inactive: -12.9%
COc1ccc(S(=O)(=O)N2CCC(C(=O)NC3CC3)CC2)cc1 | – | inactive: 0.0007%
COc1ccc([N+](=O)[O-])cc1N(CC(=O)N1CCN(Cc2ccccc2)CC1)S(C)(=O)=O | inconclusive [inhibitor, single point] | –
CCC(C)NC(=O)C1CCC(CNS(=O)(=O)c2ccc3c(c2)N(C(C)=O)CCO3)CC1 (stereo not given) | inconclusive [inhibitor, single point] | –

Structure (SMILES) | Potency | activity change, negative = inhibition
COc1cccc(CN(CC(=O)NCC2CCCO2)C(=O)CNS(=O)(=O)c2ccccc2)c1 (stereo not given) | – | inactive: 2.67%
O=[N+]([O-])c1ccc(C(=Nc2cccc3ccccc23)N2CCOCC2)cc1 | – | inactive: -6.68%
COc1cc(/C=C/C(=O)OCC(=O)N2CCc3ccccc3C2)ccc1O | inconclusive [inhibitor, single point] | –
CC(=C\C(=O)O)/C(=C/c1ccco1)C(=O)O | – | inactive: -8.56%
C#CCOCCOCCOCCNc1nc(N2CCN(C(=O)CCCCCCCCCCNC(=O)[C@H](CCCCN)n3cc(C)nn3)CC2)nc(N2CCN(C(=O)CCCCCCCCCCNC(=O)[C@H](CO)n3cc(CCCSC)nn3)CC2)n1 | inconclusive [inhibitor, single point] | –
Cc1ccc(NC(=O)c2ccc(Cl)c(S(=O)(=O)Nc3c(C)n(C)n(-c4ccccc4)c3=O)c2)cc1Cl | inconclusive [inhibitor, partial curve, poor fit] | –
CCOc1ccc(NC(=O)CC2SC(=O)N(c3ccccc3)C2=O)cc1 (stereo not given) | inconclusive [inhibitor, partial curve] | –
CCOn1c(=O)c(=O)n(OCc2ccccc2)c2ccccc21 | inconclusive [inhibitor, single point] | –
Cc1cc(C)cc(N2C(=O)CC(Sc3ncn[nH]3)C2=O)c1 (stereo not given) | – | inactive: 6.5%
COc1cccc(/C=C2\SC(=O)NC2=O)c1OCc1ccc(C(=O)O)cc1 | inconclusive [inhibitor, single point] | –
O=C(O)CSc1nnc(Cc2ccccc2)n1Cc1ccccc1 | – | inactive: -2.09%
CCOC(=O)/C=c1/s/c(=C/c2ccc3cc(OC)ccc3c2)c(=O)n1CC(=O)NCC1CCCO1 (stereo not given) | – | inactive: -2.97%
c1cc2c3c(cccc3c1)NC1(CCCC1)N2 | inconclusive [inhibitor, partial curve, poor fit] | –
Cc1cc(C(=O)CN2C(=O)C(=O)N(Cc3ccccc3)C2=O)c(C)n1-c1ccccc1F | – | inactive: 14.9%
COC(=O)C(C)(C)ONC(=O)Nc1ccc([N+](=O)[O-])cc1 | inconclusive [inhibitor, single point] | –
N#C/C(=C/c1ccc(O)c(O)c1)c1nc2ccccc2[nH]1 | inconclusive [inhibitor, single point] | –
Cc1cccn2c(=O)c3cc(S(=O)(=O)c4ccc(F)cc4)c(=N)n(Cc4ccco4)c3nc12 | – | inactive: -4.56%
CCC(CC)NC(=O)c1cc2c(C)nn(Cc3ccccc3Cl)c2s1 | – | inactive: -6.13%
O=C(O)C(c1ccccc1)N1C(=O)/C(=C\c2ccc(O)c(O)c2)SC1=S (stereo not given) | inconclusive [inhibitor, single point] | –
CCOc1ncccc1C(=O)OCC(=O)Nc1ccc2c(c1)OCO2 | – | inactive: -3.89%
COc1ccc(S(=O)(=O)N2CCCN(CC(=O)Nc3ccc(OC)c(Cl)c3)CC2)cc1 | – | inactive: 13%
CCCc1cc(-c2n[nH]c(=S)n2C(C)c2ccccc2)cs1 (stereo not given) | inconclusive [inhibitor, single point] | –
Nc1c(C(=O)N/N=C/c2ccccc2Cl)oc2nc(-c3ccccc3)cc(-c3ccco3)c12 | – | inactive: 4.82%
O=C(Cn1nc(-c2ccccc2)ccc1=O)NCc1ccc2c(c1)OCO2 | inconclusive [inhibitor, single point] | –

Structure (SMILES) | Potency | activity change, negative = inhibition
CCCc1cc(=O)n2[nH]c(-c3ccc(OC)cc3)nc2n1 | – | inactive: 4.16%
CCSc1nc(-c2ccco2)ccc1C#N | – | inactive: 1.93%
COc1ccc(-c2nc3ccccc3n2OC(C)C(=O)O)cc1 (stereo not given) | inconclusive [inhibitor, single point] | –
CCc1ccccc1NC(=O)c1cnc(N2CCCCC2)c2ccccc12 | inconclusive [inhibitor, single point] | –
O=C(CN1C(=O)NC(c2ccccc2)(c2ccccc2)C1=O)NCCNCCO | inconclusive [inhibitor, single point] | –
Cc1cc(Br)ccc1OCC(=O)N1CCCCCC1 | inconclusive [inhibitor, single point] | –
Cc1ccc(N2C(=O)/C(=C/c3ccco3)SC2=S)cc1 | – | inactive: 7.82%
CN(Cc1nccn1C)C(=O)CC1C(=O)NCCN1Cc1ccccc1C(F)(F)F (stereo not given) | – | inactive: -0.789%
O=C(CSCc1ccccc1Cl)N1CCN(c2ccc(Cl)cc2)CC1 | inconclusive [inhibitor, partial curve, poor fit] | –
Cc1ccc2cc(C=O)c(N3CCOCC3)nc2c1C | inconclusive [inhibitor, partial curve, poor fit] | –
COCCCNC(=S)N/N=C/c1ccc(OC)c(Br)c1 | – | inactive: -8.46%
Cc1c(Br)ccc(NC(=O)COc2ccccc2C(N)=O)c1C | inconclusive [inhibitor, single point] | –
Cc1cc(C)cc(NC(=O)Cn2nnc(C(=O)NCc3ccc(F)cc3)c2N)c1 | inconclusive [inhibitor, partial curve, poor fit] | –
O=C(CSc1ccc(-c2ccccn2)nn1)N1CCCC1 | inconclusive [inhibitor, single point] | –
COc1ccc([C@H]2CC(=O)C[C@@H](CCn3cc(C(C)C)nn3)O2)cc1 | inconclusive [inhibitor, partial curve, poor fit] | –
C/C(=N/NC(=O)c1ccc(Br)o1)c1cccc(NC(=O)c2ccc(C)o2)c1 | inconclusive [inhibitor, single point] | –
N#CCC(=O)c1sccc1-n1cccc1 | – | inactive: 1.94%
CC(=O)Nc1ccc(CN2CCN(C3CCCC3)C(CCO)C2)cc1 (stereo not given) | – | inactive: -1.49%
CCN1CCN(c2cc(C)c3cc(NC(=S)N4CCCCC4)ccc3n2)CC1 | inconclusive [inhibitor, partial curve, poor fit] | –
O=C(NCCO)c1cc2c(s1)CCC2 | inconclusive [inhibitor, full curve, poor fit] | –
CCOc1ccc(CCNC(=O)C2CC(C)=CCC2C(=O)O)cc1OCC (stereo not given) | inconclusive [inhibitor, single point] | –
COc1cccc(/C=C2\Oc3ccc(O)cc3C2=O)c1O | inconclusive [inhibitor, partial curve, poor fit] | –
